According to the RNAGym collection of RNA variant scans (doi:10.1093/nar/gkz1192):
The source gives no read counts; variants with many changes may rest on few reads.

B1: CPEB3 Ribozyme (parent)
chain: UAACAGGGGGCCACAGCAGAAGCGUUCACGUCGCAGCCCCUGUCAGAUUCUGGUGAAUCUGCGAAUUCUGCUGUAUAUCUC

Variants of: B1
Test: self-cleavage, relative activity (ratio to wild type); higher = more cleavage; in vitro, sequencing
In short: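 Barcoded CPEB3 ribozyme mutants, produced by rounds of error-prone PCR, self-cleaved while being transcribed with T7 RNA polymerase for 5 hours at 37°C and during a subsequent 15 min DNase I step before EDTA was added. Sequencing of template-switched cDNA on Illumina gave cleaved and total reads, and DNA sequencing assigned barcodes to variants. Each variant's relative activity is its cleaved/total read fraction divided by the unmutated ribozyme's fraction, averaged across three batches. A variant needed a minimum of 5 reads.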

| Variant | self-cleavage |
| --- | --- |
| A20G A28U C32A G55C | 0.22 |
| A20G A28U C34A A35G | 0.08 |
| A20G A28U U31A U43C U58A U78C | 0.06 |
| A20G A28U U31A U67C | 0.42 |
| A20G A28U U48C U80C | 0.61 |
| A20G A28U U51C A57G U69C U74A U78C | 0.33 |
| A20G A28U U54C U60C A75U | 0.19 |
| A20G A28U U66C | 0.29 |
| A20G A35C A45G A47G | 0.22 |
| A20G A35C A56G U67A A77G | 0.35 |
| A20G A35G A47G U67C | 1.28 |
| A20G A35G A56G | 1.17 |
| A20G A35G A57G | 1.24 |
| A20G A35G A75U | 1.21 |
| A20G A35G U41A A56U A57G G73C | 0.11 |
| A20G A35G U41A A75G | 0.23 |
| A20G A35G U41C | 1.21 |
| A20G A35G U41C A56U U72C U80C | 1.1 |
| A20G A35G U41C U43C U72C U80C | 1.4 |
| A20G A35G U41C U48C U60A U78C | 0.34 |
| A20G A35G U43C | 0.44 |
| A20G A35G U43C A57G U76C | 0.5 |
| A20G A35G U48C U66C U72C | 0.35 |
| A20G A35G U49C A56G A65G | 0.57 |

| Variant | self-cleavage |
| --- | --- |
| A20G A35G U49C G61A A65G U69A U78C | 0.23 |
| A20G A35G U51C U58A A77G | 0.37 |
| A20G A35G U51C U58G U80C | 0.81 |
| A20G A35G U51C U69G | 0.79 |
| A20G A35G U58C C62U | 0.33 |
| A20G A35G U66A | 1.06 |
| A20G A35G U72C | 1.27 |
| A20G A35G U74A A75G | 1 |
| A20G A35U A45G | 0.29 |
| A20G A35U A47G | 0.35 |
| A20G A35U A47G A64G U78C | 0.44 |
| A20G A35U A47U | 0.09 |
| A20G A35U A77U | 0.25 |
| A20G A35U C38U A45C A56G U60A | 0.13 |
| A20G A35U C59G | 0.05 |
| A20G A35U C62U A65U U69C U80C | 0.09 |
| A20G A35U G42A A56U A77C | 0.14 |
| A20G A35U U41C G46A A77U | 0.45 |
| A20G A35U U41C U43A U72G A77G U80A | 0.18 |
| A20G A35U U41C U51C U60A A77G | 0.11 |
| A20G A35U U41C U72C | 0.59 |
| A20G A35U U43C U49C | 0.33 |
| A20G A35U U49C U66C A77G | 0.13 |
| A20G A35U U67A U72C | 0.09 |

| Variant | self-cleavage |
| --- | --- |
| A20G A35U U78C | 0.42 |
| A20G A35U U80C | 0.62 |
| A20G A45C U78C | 0.28 |
| A20G A45G A47U U69C | 0.24 |
| A20G A45G A56G U60A | 0.07 |
| A20G A45G A56G U60C A65G U67C A75G | 0 |
| A20G A45G A57G | 0.4 |
| A20G A45G A65G U69A C81A | 0.04 |
| A20G A45G C71G | 0.07 |
| A20G A45G C71U | 0.16 |
| A20G A45G G53A U60C | 1.09 |
| A20G A45G U51C U69C U78C | 0.24 |
| A20G A45G U58C U74C U76C | 0.06 |
| A20G A45G U60C | 1.06 |
| A20G A45G U67C | 0.56 |
| A20G A45G U69C | 0.3 |
| A20G A45G U72C G73A A75G | 1.05 |
| A20G A45G U80A | 0.74 |
| A20G A45U A47G | 0.18 |
| A20G A45U A47G U54C | 0.13 |
| A20G A45U C71G | 0.16 |
| A20G A45U U48C A56G C68U | 0.07 |
| A20G A45U U49A | 0.28 |
| A20G A45U U54A U72C | 0.28 |

| Variant | self-cleavage |
| --- | --- |
| A20G A45U U66A | 0.24 |
| A20G A45U U69A A77U | 0.09 |
| A20G A45U U74C A75G | 0.48 |
| A20G A47C U69C G70A | 0.17 |
| A20G A47G U66C U67C | 0.52 |
| A20G A47G U74C A75U | 1.22 |
| A20G A47U A57U U60A | 0.05 |
| A20G A47U U76C | 0.64 |
| A20G A56C A65G G73A | 0.18 |
| A20G A56G A57G | 0.3 |
| A20G A56G A64G A65U | 0.16 |
| A20G A56G A64G U66C U69A U76C | 0.15 |
| A20G A56G G63A G70C A77U | 0.18 |
| A20G A56G U58G | 0.15 |
| A20G A56G U60A | 0.47 |
| A20G A56G U80C | 0.81 |
| A20G A56U A57G | 0.21 |
| A20G A56U C71G | 0.09 |
| A20G A56U U76C | 0.38 |
| A20G A57G A64U U80G | 0.36 |
| A20G A57G U58C U76A | 0.45 |
| A20G A57G U60G | 0.21 |
| A20G A57G U66C | 0.3 |
| A20G A57G U67C U69A | 0.5 |

| Variant | self-cleavage |
| --- | --- |
| A20G A57G U69A U76A | 0.36 |
| A20G A57G U69C | 0.33 |
| A20G A57G U72C G73U | 0.67 |
| A20G A57G U78A | 0.44 |
| A20G A57G U78C | 0.69 |
| A20G A57U A64U C68A | 0.14 |
| A20G A57U C68G | 0.14 |
| A20G A64G U74A | 0.54 |
| A20G A64G U78G | 0.6 |
| A20G A64G U80C | 0.73 |
| A20G A64U U69A U78C | 0.48 |
| A20G A64U U69C | 0.19 |
| A20G A64U U72A A75G U76G | 0.2 |
| A20G A64U U80A | 0.3 |
| A20G A65C U72A | 0.07 |
| A20G A65G G73U | 0.89 |
| A20G A65G U66C U74C U78C | 0.1 |
| A20G A65G U72A | 0.25 |
| A20G A65G U76C | 0.32 |
| A20G A65G U78C | 0.22 |
| A20G A65G U80C | 0.23 |
| A20G A65U U72C | 0.45 |
| A20G A77G U78A | 1.1 |
| A20G A77G U78C | 0.68 |

| Variant | self-cleavage |
| --- | --- |
| A20G A77U U78C | 0.84 |
| A20G A77U U80C | 1.22 |
| A20G C23A A35U | 0.32 |
| A20G C23A U25C G30U | 0.16 |
| A20G C23A U26C U31C U41C U48G | 0.04 |
| A20G C23U C71U | 0.1 |
| A20G C23U U25C A28G U78C | 0.17 |
| A20G C23U U31A U78C | 0.19 |
| A20G C27A A65U U69C G70C | 0.2 |
| A20G C27A C40A U49C U69A U76C | 0.04 |
| A20G C27A U51C U60C | 0.15 |
| A20G C27A U67A | 0.28 |
| A20G C27G U31A A45G A47G A77G | 0.02 |
| A20G C27G U49A | 0.13 |
| A20G C27U C40U A75G | 0.2 |
| A20G C27U U48C A77U U78C | 0.07 |
| A20G C27U U51A A77U | 0.06 |
| A20G C27U U69A | 0.25 |
| A20G C27U U72C U74C | 0.07 |
| A20G C29A U43A U66C | 0.25 |
| A20G C29A U43C A47G U49A | 0.05 |
| A20G C29A U66C | 0.21 |
| A20G C29U A47G A65U | 0.25 |
| A20G C29U C40U U54C | 0.18 |

| Variant | self-cleavage |
| --- | --- |
| A20G C29U U31C U41C | 0.09 |
| A20G C29U U41C U76C U78G | 0.24 |
| A20G C29U U43A U58C U67A C68G U76G | 0.06 |
| A20G C29U U48C G63C | 0.22 |
| A20G C29U U51A | 0.71 |
| A20G C32A A35G A45G U48G | 0.25 |
| A20G C32A A45U U54C | 0.15 |
| A20G C32A A57G | 0.06 |
| A20G C32A U41A U69A | 0.18 |
| A20G C32A U48C U54C | 0.18 |
| A20G C32A U80A | 0.2 |
| A20G C32U A47C C50U U60A | 0.07 |
| A20G C32U A47U A57G U67A U78A | 0.02 |
| A20G C32U U41A U43C U51A G55A | 0.17 |
| A20G C32U U41C A57U | 0.07 |
| A20G C32U U54C | 0.18 |
| A20G C32U U72C | 0.08 |
| A20G C32U U78C | 0.15 |
| A20G C34A G63U | 0.12 |
| A20G C34G U80A | 0.09 |
| A20G C34U A45U U69C | 0.19 |
| A20G C34U A47G U48C U51C A64G C79U | 0.34 |
| A20G C37A A56U U67A | 0.1 |
